Measured values from PubChem BioAssay AID463173 (ICCB-Longwood Screening Facility, Harvard Medical School, 2010).
The campaign covered roughly 52,000 compounds. About 4,300 (8.3%) were called active. No stated cut-off is given here; in the data, active means survival mostly below about 52% (no sharp cut-off); inactive means mostly above about 56%. The list shows a part of the results.

What follows are compounds tested on DeltatarO mutant (assay: S. aureus survival, RN4220 and DeltatarO strains – OD600, teichoic acid synthesis inhibitors, primary screen (AID 463173)). Details: S. aureus RN4220 wild type/DeltatarO growth, OD600, 18 h, active compounds read low, screened at 18.75 µg/mL (by protocol).
With `COc1ccc2c(c1)c1c(c(=O)n(-c3cccc(Cl)c3)c(=O)n1CC(=O)NCC1CCCO1)n2C` (stereo not drawn) the survival was inactive: 83%. For `Cc1ccc(CNC(=O)CCS(=O)(=O)c2ccc3c(c2)CC(C)N3C(=O)C2CC2)cc1` (stereo not drawn), the survival was inactive: 91%. `CCOc1ccc(-c2nnc(SCC(=O)NCc3ccc(C)cc3)nc2-c2ccc(OCC)c(OC)c2)cc1OC` was tested, and the survival was inactive: 67%. With `O=c1oc2ccc3ccccc3c2cc1-c1nnc(Nc2ccc(Cl)cc2Cl)s1` the survival was inactive: 83%. In the case of `COc1cccc(NC(=O)CSc2nc(=O)n(Cc3ccccn3)c3c2CCC3)c1`, the survival is reported as inactive: 71%. `CCc1ccc(NC(=O)Cn2c(=O)c(CNc3ccccc3)cc3cc(OC)c(OC)cc32)cc1` was tested, and the survival was inactive: 99%. With `COc1ccc(CCNC(=O)c2ccc3c(c2)N=C(C)c2cc(C)ccc2S3)cc1OC` the survival was inactive: 63%. With `Cc1cccc(NC(=O)C2CCCN(S(=O)(=O)c3c(C)[nH]c(=O)[nH]c3=O)C2)c1C` (stereo not drawn) the survival was inactive: 129%. For `Cc1ccc(Cn2nnc3c(=O)[nH]c(C4CCCN(C(=O)c5ccco5)C4)nc32)cc1` (stereo not drawn), the survival was inactive: 91%. For `COc1ccc(-c2nc3ccccc3o2)cc1NC(=O)C(C)(C)Oc1ccc(Br)cc1`, the survival was active: 4%. `CC1=CC(C)C(/C=N/O)C(C)C1` (stereo not drawn) was tested, and the survival was inactive: 94%. With `O=c1[nH]c(=O)n(-c2ccc(Cl)cc2)c(O)c1/C=N/n1cnnc1` the survival was inactive: 58%. In the case of `CC(=O)N(CN1C(=O)c2ccccc2C1=O)c1ccccc1`, the survival is reported as inactive: 102%. In the case of `COc1ccc(N2CC(NC(=O)C3CC3)CC2=O)cc1` (stereo not drawn), the survival is reported as inactive: 71%. For `CCC(NC(=O)Nc1ccc(OC)c(OC)c1)c1c(-n2cccc2)sc2c1CCN(C)C2` (stereo not drawn), the survival was inactive: 65%. With `CC(=O)c1cccc(NC(=O)[C@H](Cc2ccccc2)N2Cc3ccccc3C2=O)c1` the survival was inactive: 67%. In the case of `c1ccc2c(c1)COC1(CCCCC1)N2`, the survival is reported as inactive: 94%. In the case of `COc1ccccc1C(=O)NCCSc1c(C)[nH]c2ccccc12`, the survival is reported as inactive: 50%. `CCN(CC)C(=O)Cn1c(=O)n(Cc2ccc(C(=O)NCc3ccc(C)cc3)cc2)c(=O)c2ccccc21` was tested, and the survival was inactive: 83%. In the case of `Cc1ncc(CO)c2c1Oc1nc(-c3ccccc3)nc(SCC(=O)N3CCCCC3)c1C2`, the survival is reported as inactive: 85%. `CS(=O)(=O)N1CCc2cc(C(=O)Nc3ccc(Cl)c(C(F)(F)F)c3)ccc21` was tested, and the survival was active: 33%. `O=C(C1CCC(CNS(=O)(=O)c2ccc(Br)s2)CC1)N1CCN(c2ccccc2Cl)CC1` (stereo not drawn) was tested, and the survival was inactive: 95%. `CCOc1cc2sc(N3CCC(C(=O)Nc4ccccc4C(=O)OC)CC3)nc2cc1Br` was tested, and the survival was inactive: 103%. In the case of `COc1ccc(NC(=O)Cn2c(=O)n(-c3cccc(C)c3)c(=O)c3c2c2cc(C)ccc2n3C)cc1Cl`, the survival is reported as inactive: 72%. In the case of `O=C1OC(c2ccccc2)=N/C1=C1\OC(=O)c2ccccc21`, the survival is reported as inactive: 73%. `Cc1ccc(NC(=O)c2cn3c4c(ccc(Cl)c4c2=O)OC(C)C3)cc1C` (stereo not drawn) was tested, and the survival was inactive: 92%. For `CCOCCCNC(=O)c1cc2c(=O)n(C)c3ccccc3c2n1C`, the survival was inactive: 86%. In the case of `O=c1oc2ccccc2n1CCCOc1ccccc1Cl`, the survival is reported as active: 3%. `COc1cccc(N2CCN(C(=O)CCS(=O)(=O)c3ccc4c(c3)CC(=O)N4C)CC2)c1` was tested, and the survival was inactive: 80%. `O=C(Cn1c(=O)oc2cc(S(=O)(=O)N3CCCC3)ccc21)NCc1ccc(Cl)cc1` was tested, and the survival was inactive: 115%. For `c1ccc(-c2nc3cc(Cc4ccc5oc(-c6ccccn6)nc5c4)ccc3o2)nc1`, the survival was inactive: 109%. In the case of `O=C(CN1CCN(Cc2ccc3c(c2)OCO3)CC1)N1c2ccccc2CCc2ccccc21`, the survival is reported as inactive: 95%. In the case of `CCN1CCC(N(Cc2cccc(OC)c2)C(=O)Nc2cccc(C)c2C)CC1`, the survival is reported as active: 20%. In the case of `CC1=Nc2cc(C(=O)NCc3ccc(C)cc3)ccc2Sc2ccc(Cl)cc21`, the survival is reported as inactive: 67%. `COc1ccc(C2N=C(N)Nc3nc4ccccc4n32)c(OC)c1OC` (stereo not drawn) was tested, and the survival was inactive: 64%. For `COc1ccc(C(=O)Nc2cc(-c3ccccc3)nn2-c2ccccc2)cc1`, the survival was inactive: 75%. With `O=C(COCc1cc(-c2cccs2)on1)Nc1cc(Cl)ccc1O` the survival was inactive: 92%. `CCOC(=O)c1cccc(NC(=O)c2cc3cc4cc(OC)ccc4nc3s2)c1` was tested, and the survival was inactive: 76%. For `COc1ccc(C)cc1NC(=O)CN1C(=O)COc2ccc(S(=O)(=O)N3CCOCC3)cc21`, the survival was inactive: 98%. With `Cc1ccc(CNC(=O)C2CCN(S(=O)(=O)Cc3ccccc3)CC2)cc1` the survival was inactive: 75%. In the case of `COc1ccc(CNc2oc(/C=C/c3cc(OC)c(OC)c(OC)c3)nc2C#N)cc1`, the survival is reported as inactive: 59%. With `O=C(Cn1c(-c2cccs2)cc2cc(F)ccc21)N1CCN(c2ccccc2)CC1` the survival was inactive: 71%. With `COc1ccc(C)cc1-n1nnc(S(=O)(=O)c2ccc(C)cc2)c1C` the survival was inactive: 54%. In the case of `COc1ccc2c(C)c(CCC(=O)NCc3ccccc3OC)c(=O)oc2c1`, the survival is reported as inactive: 64%. `Cc1cccn2c(=O)c(C(=O)NC(C)c3ccccc3)c(O)nc12` (stereo not drawn) was tested, and the survival was inactive: 58%. In the case of `CCOc1ccc(Nc2oc(/C=C/c3ccc(OC)c(OC)c3)nc2C#N)cc1`, the survival is reported as active: 55%. In the case of `COCCn1c(SCC(=O)NCc2ccco2)nnc1-c1cccs1`, the survival is reported as inactive: 114%. With `COc1cccc(Nc2nc3c(S(=O)(=O)c4cc(C)ccc4C)nnn3c3ccsc23)c1` the survival was inactive: 46%. For `CC(=O)Nc1c(C)nn(-c2ccccc2)c1N1CCC(C(=O)Nc2ccccc2C(F)(F)F)CC1`, the survival was inactive: 84%. With `O=C(CN1c2ccc(Br)cc2-c2ccccc2S1(=O)=O)N1CCCCC1` the survival was inactive: 91%. With `Cc1ccc(NC(=O)N2CCN(Cc3nc4ccc(C)cc4o3)CC2)cc1` the survival was inactive: 91%. In the case of `Cc1cc(=O)c2cc(C(=O)Nc3ccc(F)cc3)ccc2[nH]1`, the survival is reported as inactive: 83%. With `CCOC(=O)N1CCN(S(=O)(=O)N2CCCC(C(=O)NCc3cc(Br)ccc3OC)C2)CC1` (stereo not drawn) the survival was inactive: 74%. With `CCN1CCc2nc3sc(C(=O)Nc4ccccc4OC(F)(F)F)c(N)c3cc2C1` the survival was active: 44%. For `Cc1cc(C)c(NC(=O)CSC2=Nc3ccccc3C3=NC(CC(=O)NCc4cccs4)C(=O)N23)c(C)c1` (stereo not drawn), the survival was inactive: 79%. `Cc1ccc(CNS(=O)(=O)c2ccc3[nH]c4c(c3c2)CCCCC4)cc1` was tested, and the survival was inactive: 75%. For `COCCCn1c(=O)c2sccc2n2c(CCCC(=O)Nc3cccc(OC)c3)nnc12`, the survival was inactive: 86%. In the case of `COc1ccc(CNC(=O)c2cc3cccc4c3n2CC(C)S4)cc1OC` (stereo not drawn), the survival is reported as inactive: 84%. For `COCCCn1c(SCC(=O)Nc2ccc(F)cc2)nc2c(sc3ccccc32)c1=O`, the survival was inactive: 81%. With `COc1ccc(Cl)cc1NC(=O)Cn1nc(C(F)(F)F)c2c1CCCC2` the survival was active: 35%. In the case of `O=C(c1ccccc1Cl)N1CCC(c2nc3ccccc3s2)CC1`, the survival is reported as inactive: 57%. For `CCN(CC)S(=O)(=O)c1ccc(C(=O)NC2CC(=O)N(c3ccc(OC)c(OC)c3)C2)cc1` (stereo not drawn), the survival was inactive: 70%. With `Cc1ccc(N(CC(=O)NCCSc2ccccc2)S(=O)(=O)c2ccc(F)cc2)cc1` the survival was inactive: 109%. In the case of `CC(=O)c1ccc(NC(=O)c2cc3sccc3n2Cc2ccc(Cl)cc2)cc1`, the survival is reported as inactive: 90%. With `O=C(COc1ccc(Cl)cc1)NCC(c1ccco1)S(=O)(=O)c1ccc(F)cc1` (stereo not drawn) the survival was inactive: 87%. `CCOCCCNC(=O)C(=O)Nc1c2c(nn1-c1ccccc1)CSC2` was tested, and the survival was inactive: 91%. For `CC1CCc2c(sc3nnn(CC(=O)Nc4c(C(C)C)cccc4C(C)C)c(=O)c23)C1` (stereo not drawn), the survival was inactive: 102%. With `CCC(C)c1ccccc1OCC(=O)Nc1ccc(S(=O)(=O)Nc2cc(C)on2)cc1` (stereo not drawn) the survival was inactive: 80%. `COc1cc(NS(=O)(=O)c2c(C(=O)N3CCCCC3)c(C)n(C)c2C)cc(OC)c1OC` was tested, and the survival was inactive: 74%. In the case of `COc1ccc(-c2cc3ncc(C(=O)c4cc([N+](=O)[O-])ccc4O)cn3n2)cc1`, the survival is reported as active: 33%. `O=C(Nc1cccc2cccnc12)c1ccc(-c2cccc(Cl)c2)o1` was tested, and the survival was active: 3%. `CCCn1c2ccccc2c2cnn(CC(=O)NCCCN(CC)c3ccccc3)c(=O)c21` was tested, and the survival was inactive: 81%. `CCOc1cc(S(=O)(=O)NCCc2ccc(OC)c(OC)c2)c(OCC)cc1-n1cnnn1` was tested, and the survival was inactive: 96%. `Cc1ccc(Cl)cc1-n1ncc2c(Nc3ccc4c(c3)OCCO4)ncnc21` was tested, and the survival was inactive: 82%. For `O=C(c1ccc2c(c1)N(Cc1c(F)cccc1Cl)C(=O)c1ccccc1S2)N1CCCC1`, the survival was inactive: 74%. In the case of `COc1cc(NC(=O)CN2C(=O)COc3ccc(S(=O)(=O)NC4CCCC4)cc32)cc(OC)c1`, the survival is reported as inactive: 124%. For `CC(=O)N1CCCC1c1nc2ccccc2n1Cc1ccc(F)cc1` (stereo not drawn), the survival was inactive: 85%. With `Fc1ccc(-c2csc(=Nc3cccc(C(F)(F)F)c3)n2Cc2ccc3c(c2)OCO3)cc1` the survival was inactive: 81%. For `CC(=O)Nc1ccc(S(=O)(=O)N2CCN(C(=O)N3CCCC3)CC2)cc1`, the survival was inactive: 85%. In the case of `COc1ccc(-c2nc(CCNC(=O)c3ccccc3)cs2)cc1OC`, the survival is reported as inactive: 130%. In the case of `Fc1ccc(-c2cc(-c3ccccc3)c3c(n2)-c2ccccc2OC3)cc1`, the survival is reported as inactive: 83%. For `Cc1cccc(C)c1NC(=O)CCCn1c(=O)c2cccn2c2ccccc21`, the survival was inactive: 55%. `O=C1C(=O)N(C2CCNCC2)CCN1Cc1ccccc1` was tested, and the survival was inactive: 81%. In the case of `CCOC(=O)c1c(S(=O)(=O)NCC(=O)Nc2ccc(C(C)=O)cc2)c(C)n(C)c1C`, the survival is reported as inactive: 80%. For `O=C(Nc1sc2c(c1C(=O)NCC1CCCO1)CCC2)c1cc(=O)c2cc(Cl)ccc2o1` (stereo not drawn), the survival was active: 43%. For `COc1cccc(NC(=O)CCCn2c(=O)c3cccn3c3cccnc32)c1`, the survival was inactive: 88%. In the case of `Cc1ccc(CCNC(=O)c2ccc3c(c2)N(Cc2ccccc2F)C(=O)c2ccccc2S3=O)cc1` (stereo not drawn), the survival is reported as inactive: 69%. `Cn1nnnc1SCCCNCc1cc(Br)ccc1OCc1ccccc1F` was tested, and the survival was inactive: 63%.
